Data as given in PubChem BioAssay AID485297 (National Center for Advancing Translational Sciences (NCATS), 2010).
About 9,100 (2.8%) of roughly 320,000 compounds were called active. Inconclusive means that the source gave no clear call. Such entries were picked first, then a sample of the others. The call rests on the fitted dose curve; in most records, active means well fitted activation curve with a large enough effect; inconclusive means small, poorly fitted or top-dose-only effect; inactive means no such curve, though single readings can be large or run the other way. Potencies of inconclusive entries are doubtful fits and often do not repeat.

experiment: qHTS Assay for Rab9 Promoter Activators; settings: Huh7 Rab9 promoter-luciferase reporter, luminescence, 24 h; series mostly up to 9.22 µM; further: nearly all actives have a fitted effect of over 60% in size
Outline: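 Steps: seed 1500 Huh7 Rab9-luc cells per well, rest 2 h at 37 °C; add compound in DMSO; incubate 24 h; add luciferase reagent, 10 min ambient; read luminescence.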
Potency means the concentration at half of the fitted maximal effect; tags describe the fitted curve by direction and shape.

Potency, active:
CC(C)c1ccc(/C=N/NC(=O)c2ccccn2)cc1 0.316 µM
Cn1ccc(C(=O)NC(=S)Nc2ccc([N+](=O)[O-])cc2O)n1 2.82 µM
O=c1cc(-c2ccc3c(c2)OCCO3)oc2ccc(Cl)cc12 0.447 µM
COCCNC(=O)c1cc(-c2cccc(OC)c2)on1 3.16 µM
COC(=O)c1c(C)[nH]c(C(=O)OCc2ccc(F)cc2)c1C 3.98 µM
CCCOc1ccc(-c2csc(N)n2)cc1[N+](=O)[O-] 2.82 µM
O=C(N/N=C/c1cc(Br)c(Br)o1)c1ccc2c(c1)OCCO2 2.51 µM
CCOC(=O)c1cnc2cc(-c3ccc(Br)cc3)nn2c1C 2.82 µM
CC(=O)Nc1ccc(NC2=CC(=O)c3ccccc3C2=O)cc1 2 µM
CCOc1ccc(OCc2ccc(C(=O)N3CCCC(C)C3)cc2)cc1 (stereo not drawn) 2 µM
CCC(=O)Nc1ccc(-c2ccc(N3CCC(C)CC3)nn2)cc1 1.41 µM
S=C(NCCc1ccccc1)NCCc1ccccc1 4.47 µM
Cc1ccc(C(=O)Nc2nc(C(C)(C)C)cs2)s1 3.16 µM
CCOc1ccc(NC(=O)c2ccc(NC(=O)COC(=O)Cc3ccc(OC)cc3)cc2)cc1 2.51 µM
Cc1ccc(CNc2ccc3c(c2)ncn3C(C)C)cc1 2.82 µM
Cc1cc(-c2cc(N)n(-c3ccccc3)n2)c(C)n1C1CCCC1 1.58 µM
Nc1ccccc1SC1CC(=O)N(c2ccc3c(c2)OCCO3)C1=O (stereo not drawn) 2.24 µM

Potency, inactive:
O=C(Nc1cccc(-c2nc3ccccc3s2)c1)c1cc(-n2cnnc2)ccc1Cl
CCOC(=O)/C=C1\SCC(=O)N1CC(=O)Nc1cccc(F)c1
O=C(/C=C/c1ccc2c(c1)OCCO2)N1CCN(c2ccc(F)cc2)CC1
CN1CCN(C(=O)c2cc(-c3ccco3)on2)CC1
NNC(=O)c1ccc(OCC2CC(c3ccc(Cl)cc3)=NO2)cc1 (stereo not drawn)
CCOC(=O)C1(CC2CCCCO2)CCN(Cc2nc(C(C)C)cs2)CC1 (stereo not drawn)
CCOc1ccc2oc(C(=O)NCc3ccccc3CN3CCCC3)c(C)c2c1
O=[N+]([O-])c1ccc2[nH]c3nc4ccccc4nc3c2c1
O=C(O)c1cc(N2N=C(C(F)(F)F)/C(=C/C=C/c3ccco3)C2=O)ccc1Cl
CN(C)CCCN(Cc1ccccc1)C(=S)Nc1ccc(OC(F)F)cc1
Cc1c(CC(=O)O)c(=O)oc2c(C)c(OCc3ccc(F)cc3Cl)ccc12
CN1CCN(CC(=O)Nc2c(C#N)cnn2-c2ccccc2)CC1
CCc1ccc(OCC(=O)NC2CCCCC2)c(Br)c1
COc1ccccc1NC(=S)N(CCN(C)C)C(C)c1ccncc1 (stereo not drawn)
Cn1c(N)c(C(=O)COC(=O)c2ccc3c(c2)OCCO3)c(=O)n(C)c1=O
CC(=O)c1ccc(OCCCC(=O)Nc2cccc(-c3nn[nH]n3)c2)cc1
CC(=O)c1cccc(S(=O)(=O)Nc2c(C)nn(C)c2C)c1
O=C(N/N=C/C=C\c1ccccc1[N+](=O)[O-])c1ccncc1
CC(C)(C)OC(=O)N1CCC(NC(=O)c2[nH]cnc2C(=O)Nc2ccon2)CC1
COC(=O)c1ccc(COC(=O)CCNS(=O)(=O)c2ccc(C)c(C)c2)cc1

Potency, inconclusive:
CC(=O)c1ccc(N2CCN(C(=O)c3ccco3)CC2)c(F)c1 2.82 µM [activator, partial curve]
CCOC(=O)c1sc(Nc2nc3cc4c(cc3s2)OCO4)cc1C 4.47 µM [activator, single point]
COCCNC(=O)Cn1nc(-c2ccccc2)c2ccccc2c1=O 5.62 µM [activator, single point]
CCOC(=O)c1cnn(-c2ccc(C(F)(F)F)cn2)c1N 2.82 µM [activator, partial curve]
Cc1cccc(-n2ncc3c(NCc4ccco4)ncnc32)c1 5.62 µM [activator, single point]
O=C(NCCCn1ccnc1)c1cc(-c2cccc(O)c2)on1 3.55 µM [activator, single point]
CCCCC(=O)NS(=O)(=O)c1ccc(N=NN2CCOCC2)cc1 5.62 µM [activator, single point]
O=C(CCCN1C(=O)/C(=C/c2cccs2)SC1=S)Nc1cccc(C(=O)O)c1 5.62 µM [activator, single point]
COc1ccc(CNC(=O)c2noc3c2CCCCC3)cc1 6.31 µM [activator, single point]
O=C(Nc1ccccc1)Nc1cccc(C(F)(F)F)c1 3.55 µM [activator, single point]
C/C(N)=C(/C#N)C(=O)CSc1nnc(Nc2cccc(C)c2C)s1 3.16 µM [activator, single point]
O=C(CCS(=O)(=O)c1ccccc1)Nc1ccc2c(c1)OCO2 3.55 µM [activator, single point]
COc1ccc(NC(=O)CSc2ccccc2)c([N+](=O)[O-])c1 2.82 µM [activator, partial curve, poor fit]
N#C/C(=C\c1ccc(-c2nc3ccccc3s2)o1)C(N)=O 4.47 µM [activator, partial curve]
O=C(NCCc1c[nH]c2ccccc12)c1ccc(F)cc1F 3.16 µM [activator, partial curve]
O=C(N/N=C/c1cn(-c2ccccc2)nc1-c1cc2ccccc2o1)c1ccccc1Br 3.98 µM [activator, single point]
O=C(Nc1ccc(Cl)cc1)Nc1cccnc1 2.51 µM [activator, partial curve]
CC(=O)c1cccc(NC(=S)N2CCc3ccccc32)c1 3.98 µM [activator, single point]
O=C(Nc1ccc(Cl)cc1)N1CC=CCC1 3.55 µM [activator, partial curve]
O=C(NC(=S)Nc1ccc(N2CCOCC2)c(Cl)c1)c1cccs1 1.58 µM [activator, partial curve, poor fit]
O=C(Nc1nc2c(s1)CCCC2)c1ccc2ncsc2c1 0.355 µM [activator, partial curve, poor fit]
COc1ccc(Nc2ncccc2C(=O)Nc2ccccc2)cc1 5.62 µM [activator, single point]
CCCCCC(=O)Nc1ccc2ccccc2c1 2.51 µM [activator, partial curve]
CC1CCCN(C(=O)c2cc3c(=O)n4ccccc4nc3s2)C1 (stereo not drawn) 3.98 µM [activator, partial curve]
CCOc1ccc(NC(=O)CCC(=O)n2nc(C)cc2C)cc1 5.62 µM [activator, single point]
Cc1csc(SCC(=O)c2c(N)n(C)c(=O)n(C)c2=O)n1 4.47 µM [activator, single point]
Cc1ccc(C(=O)CN2C(=O)NC3(CCCCCC3)C2=O)c(C)c1 2.82 µM [activator, partial curve]
Oc1cccc(-c2nc3ccccc3s2)c1 3.98 µM [activator, single point]
Cn1cnc2cc(NCc3ccccc3Cl)ccc21 2.24 µM [activator, partial curve]
O=C(Nc1ccccc1)c1ccc2nsnc2c1 3.98 µM [activator, single point]
Fc1ccccc1C1CCN(Cc2nc(CC3CC3)no2)C1 (stereo not drawn) 2.51 µM [activator, partial curve]
Cc1cc(=O)oc2cc(NC(=O)c3cccc(S(C)(=O)=O)c3)ccc12 3.55 µM [activator, partial curve]
CCOC(=O)c1ccc(NCCOC)c([N+](=O)[O-])c1 3.55 µM [activator, single point]
CCOC(=O)C1=C(C)NC2=C(C(=O)CC(c3ccc(OC)c(OC)c3)C2)C1c1ccc(C)o1 (stereo not drawn) 1.26 µM [activator, single point]
COC(=O)c1cc2c(=O)c3ccccc3oc2nc1C 2.51 µM [activator, partial curve, poor fit]
CSc1ccc(Cn2nnc(C(=O)Nc3ccc(C)c(C)c3)c2N)cc1 2.24 µM [activator, partial curve]
O=C(NCc1ccc2c(c1)OCO2)C(=O)Nc1ccccc1 3.55 µM [activator, single point]
O=C(COc1ccc(Cl)cc1Cl)NC(=O)N1CCCCC1 2.82 µM [activator, partial curve]
Cc1occc1-c1nnc(SCC(=O)c2ccc(F)cc2)o1 3.55 µM [activator, single point]
COc1ccc(/C=C2\SC(=O)N(CCNC(=O)C3CCN(S(=O)(=O)c4cccs4)CC3)C2=O)cc1 4.47 µM [activator, single point]
CCCSc1nnc(NC(=O)Nc2ccccc2OC)s1 5.01 µM [activator, single point]
